Paper PMC12631116
These are yes or no findings as the source states them, for the method shown. In cells and extracts the contact can be indirect. Some results given as binding are weak or reduced against the parent protein; the word gives no strength.

Sequences of proteins named here, by UniProt entry; tags and fusion partners are left off. A change or cut given only in a name is not applied to a line headed by its entry. Residues count along the entry.
UniProt P43268: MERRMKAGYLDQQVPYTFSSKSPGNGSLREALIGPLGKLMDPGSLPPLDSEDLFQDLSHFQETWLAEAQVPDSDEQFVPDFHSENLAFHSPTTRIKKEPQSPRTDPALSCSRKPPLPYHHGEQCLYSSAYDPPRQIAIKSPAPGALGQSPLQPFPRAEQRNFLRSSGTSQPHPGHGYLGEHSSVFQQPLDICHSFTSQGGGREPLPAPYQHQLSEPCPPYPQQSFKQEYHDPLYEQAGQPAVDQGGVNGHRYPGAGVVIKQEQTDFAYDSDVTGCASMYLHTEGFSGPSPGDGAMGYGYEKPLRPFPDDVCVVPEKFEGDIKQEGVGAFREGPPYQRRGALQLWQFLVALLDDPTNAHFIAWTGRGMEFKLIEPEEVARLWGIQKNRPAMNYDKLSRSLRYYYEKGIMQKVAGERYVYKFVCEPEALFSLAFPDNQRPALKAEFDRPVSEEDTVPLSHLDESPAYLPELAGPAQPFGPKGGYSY
GST-ETV4-P1(1-339AA) fusion protein: residues 1-339 of P43268
Flag-ETV4-P2(278-484): residues 278-484 of P43268
Flag-ETV4-P3(340-484): residues 340-484 of P43268
UniProt Q9Y4K0, residues 26-774: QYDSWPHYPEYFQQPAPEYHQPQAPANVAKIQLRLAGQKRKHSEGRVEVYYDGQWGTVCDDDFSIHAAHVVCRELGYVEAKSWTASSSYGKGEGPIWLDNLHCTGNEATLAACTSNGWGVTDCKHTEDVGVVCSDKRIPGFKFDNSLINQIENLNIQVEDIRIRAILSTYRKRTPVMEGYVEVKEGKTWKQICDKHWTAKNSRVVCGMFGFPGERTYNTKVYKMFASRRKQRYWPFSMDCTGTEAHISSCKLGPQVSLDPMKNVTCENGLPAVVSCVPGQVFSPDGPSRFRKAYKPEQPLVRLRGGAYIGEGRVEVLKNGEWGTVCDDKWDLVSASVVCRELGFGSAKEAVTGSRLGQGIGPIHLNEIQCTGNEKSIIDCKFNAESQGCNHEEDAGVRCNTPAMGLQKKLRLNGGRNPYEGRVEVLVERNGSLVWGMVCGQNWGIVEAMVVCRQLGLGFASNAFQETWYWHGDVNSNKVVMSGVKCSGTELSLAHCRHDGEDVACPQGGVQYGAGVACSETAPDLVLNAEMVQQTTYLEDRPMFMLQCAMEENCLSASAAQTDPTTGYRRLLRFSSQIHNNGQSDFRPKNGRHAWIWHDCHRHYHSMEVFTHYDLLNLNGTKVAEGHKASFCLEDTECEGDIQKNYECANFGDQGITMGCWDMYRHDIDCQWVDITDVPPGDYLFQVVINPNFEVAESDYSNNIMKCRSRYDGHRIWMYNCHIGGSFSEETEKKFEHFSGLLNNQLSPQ

Tests used:
[1] = biological target: Flag-ETV4-P3(340-484) (UniProt P43268); assay: co-IP; 293Ta cells co-transfected with Flag-ETV4 (or deletion mutants) and HA-LOXL2 for 48h; IP lysis buffer; anti-Flag antibody on Protein A/G magnetic beads, overnight at 4 C; normal mouse IgG as control; Western blotting
[2] = biological target: Flag-ETV4 (ETS variant 4) (UniProt P43268); assay: as above
[3] = biological target: Flag-ETV4-P1(1-339) (UniProt P43268); assay: as above
[4] = biological target: Flag-ETV4-P2(278-484) (UniProt P43268); assay: as above
[5] = biological target: GST-ETV4 fusion protein (UniProt P43268); assay: pull-down; GST, GST-ETV4 or GST-ETV4-P1 bound to glutathione-Sepharose beads, incubated with whole cell lysate of HCT116-ETV4 cells (RIPA buffer); detected with anti-LOXL2 antibody; only the target purified
[6] = biological target: GST-ETV4-P1(1-339AA) fusion protein (UniProt P43268); assay: as above
[7] = biological target: ETV4 (ETS variant 4) of colorectal cancer cells (human (endogenous in HCT116 and RKO)) (UniProt P43268); assay: proximity ligation; Duolink in situ PLA in HCT116 and RKO cells; either ETV4 or LOXL2 antibody alone as control; confocal microscopy

Row | binding [1] | binding [2] | binding [3] | binding [4] | binding [5] | binding [6] | binding [7] | Substance
1 | no binding | binds | binds | no binding | – | – | – | HA-LOXL2 (Lysyl oxidase-like 2) (from UniProt Q9Y4K0 26-774) (enzyme)
2 | – | – | – | – | binds | binds | binds | LOXL2 (Lysyl oxidase-like 2) of colorectal cancer cells (from UniProt Q9Y4K0 26-774) (enzyme)
